Results reported in the supplement of paper PMC7826260.
This is one part of the list. Each Rep nickase domain was tested in vitro on the same pool of single strands for 1 h at 37 °C with 3 µM enzyme; only the middle of the 90-letter strands is printed. Numbers give uncut DNA relative to the enzyme-free pool, as log2; more negative means more cut, near 0 not cut, and no call is made. Counts are relative to all reads; where an enzyme cuts many sequences, the uncut ones exceed 0.

How the values were obtained:
Assay in all cases: uncleaved DNA left, log2 of reads against the no-enzyme library (log2 ratio); higher = less cleavage (more negative = more Rep cleavage of the k-mer); sequences stand for … in CTCGTCCG…ACCGGAGA
[1] = test system: T1, Rep nickase domain of Muscovy duck circovirus
T1 sequence (protein, residues 1-111, tag omitted): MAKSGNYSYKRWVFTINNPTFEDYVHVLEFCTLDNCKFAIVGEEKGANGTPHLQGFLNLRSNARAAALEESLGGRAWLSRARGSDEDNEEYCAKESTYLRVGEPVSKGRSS
Description: (§1)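 A pool of 90-nt single-stranded DNAs with seven random bases just before the constant AC of the nick site (name = the seven bases) was cut by 3 µM recombinant His6-SUMO-tagged Rep nickase domain (300 nM DNA, 50 mM HEPES pH 8.0, 50 mM NaCl, 1 mM MnCl2, 1 h, 37 °C, three replicates). Uncut DNA was amplified and sequenced.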

[2] = test system: T2, Rep nickase domain of banana bunchy top virus
T2 sequence (protein, residues 1-94, tag omitted): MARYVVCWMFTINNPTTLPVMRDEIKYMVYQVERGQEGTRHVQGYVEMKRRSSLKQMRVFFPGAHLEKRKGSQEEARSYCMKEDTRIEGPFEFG
Description: as §1

[3] = test system: T3, Rep nickase domain of cabbage leaf curl virus
T3 sequence (protein, residues 1-116, tag omitted): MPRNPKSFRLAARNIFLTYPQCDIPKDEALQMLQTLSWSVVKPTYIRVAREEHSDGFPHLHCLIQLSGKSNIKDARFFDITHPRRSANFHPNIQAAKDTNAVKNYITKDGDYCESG
Description: as §1

[4] = test system: T4, Rep nickase domain of chickpea chlorotic dwarf virus
T4 sequence (protein, residues 1-124, tag omitted): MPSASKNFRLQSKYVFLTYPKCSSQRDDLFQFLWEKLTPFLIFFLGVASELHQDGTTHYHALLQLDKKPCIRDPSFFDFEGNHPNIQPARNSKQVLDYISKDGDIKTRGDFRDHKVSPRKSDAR
Description: as §1

[5] = test system: T5, Rep nickase domain of faba bean necrotic yellows virus
T5 sequence (protein, residues 1-98, tag omitted): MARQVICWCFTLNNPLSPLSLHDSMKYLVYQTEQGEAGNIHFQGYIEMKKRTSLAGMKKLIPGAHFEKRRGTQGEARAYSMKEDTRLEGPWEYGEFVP
Description: as §1

[6] = test system: T6, Rep nickase domain of maize striate mosaic virus
T6 sequence (protein, residues 1-117, tag omitted): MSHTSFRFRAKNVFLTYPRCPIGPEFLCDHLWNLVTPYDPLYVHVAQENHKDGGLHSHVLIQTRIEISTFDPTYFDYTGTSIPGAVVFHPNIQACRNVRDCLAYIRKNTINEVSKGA
Description: as §1

[7] = test system: T7, Rep nickase domain of porcine circovirus 2
T7 sequence (protein, residues 2-116, tag omitted): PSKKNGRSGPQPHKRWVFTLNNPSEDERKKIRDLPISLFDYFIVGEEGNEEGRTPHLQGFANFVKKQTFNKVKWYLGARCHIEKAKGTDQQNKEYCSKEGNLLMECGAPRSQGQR
Description: as §1

[8] = test system: T8, Rep nickase domain of tomato golden mosaic virus
T8 sequence (protein, residues 1-124, tag omitted): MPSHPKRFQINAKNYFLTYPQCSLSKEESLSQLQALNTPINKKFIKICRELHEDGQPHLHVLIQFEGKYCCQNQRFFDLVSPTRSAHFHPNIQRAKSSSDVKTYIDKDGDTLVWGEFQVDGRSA
Description: as §1

[9] = test system: T9, Rep nickase domain of tomato yellow leaf curl virus
T9 sequence (protein, residues 1-136, tag omitted): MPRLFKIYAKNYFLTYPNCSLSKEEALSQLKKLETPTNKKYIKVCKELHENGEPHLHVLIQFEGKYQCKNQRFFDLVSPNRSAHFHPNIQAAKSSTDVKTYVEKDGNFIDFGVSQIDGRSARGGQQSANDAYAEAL
Description: as §1

[10] = test system: T10, Rep nickase domain of wheat dwarf virus
T10 sequence (protein, residues 1-137, tag omitted): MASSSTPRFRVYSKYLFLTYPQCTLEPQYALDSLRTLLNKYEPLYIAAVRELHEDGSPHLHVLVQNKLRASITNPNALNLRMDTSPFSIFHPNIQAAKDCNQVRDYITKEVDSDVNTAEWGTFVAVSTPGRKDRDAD
Description: as §1

Sequence | uncleaved DNA left (log2) [1] | uncleaved DNA left (log2) [2] | uncleaved DNA left (log2) [3] | uncleaved DNA left (log2) [4] | uncleaved DNA left (log2) [5] | uncleaved DNA left (log2) [6] | uncleaved DNA left (log2) [7] | uncleaved DNA left (log2) [8] | uncleaved DNA left (log2) [9] | uncleaved DNA left (log2) [10]
ATGGTAC | -0.0469 | 0.0382 | -0.0218 | 0.237 | 0.017 | -0.225 | 0.0162 | 0.0197 | 0.0109 | 0.0263
ACAAGCT | 0.0363 | 0.122 | -0.123 | 0.141 | 0.131 | -0.116 | 0.262 | 0.0343 | -0.0195 | 0.0647
TACTGGC | -0.0276 | -0.163 | -0.331 | -0.285 | -0.0859 | -0.565 | -0.0895 | -0.0883 | -0.0991 | -0.0436
ATGGAGT | 0.0129 | 0.00997 | 0.121 | 0.967 | -0.065 | 0.968 | 0.122 | -0.00553 | -0.211 | -0.0444
TAGCCTC | 0.0385 | 0.00111 | 0.0967 | -0.328 | 0.00945 | 0.0471 | -1.31 | 0.00511 | 0.0978 | 0.127
GGTTCAA | 0.044 | 0.107 | 0.452 | 1.24 | 0.0123 | 1.91 | 0.173 | 0.137 | 0.127 | 0.152
TAGTGCG | 0.000641 | -0.123 | -0.213 | 0.987 | -0.118 | 0.593 | 0.0656 | -0.148 | -0.152 | -0.161
AACTTGA | -4.95e-05 | 0.0917 | -0.167 | -0.684 | -0.0137 | -0.803 | -0.616 | -0.0633 | 0.0856 | 0.0521
GGCCACT | -0.0789 | -0.0588 | 0.446 | 0.945 | -0.0683 | 1.78 | 0.0395 | -0.12 | 0.0575 | 0.12
TAGGCCG | 0.0397 | 0.0398 | -0.861 | -0.642 | -0.036 | -1.18 | 0.0607 | -0.133 | 0.00316 | -0.0189
GAGGGCT | -0.0066 | -0.0317 | 0.768 | 1.35 | -0.074 | 1.9 | 0.142 | 0.0378 | -0.0913 | -0.0459
CTACTGC | -0.0434 | -0.0266 | -0.331 | -0.608 | -0.0875 | -0.581 | 0.0413 | -0.164 | -0.251 | -0.105
TCATTCG | 0.0175 | -0.0513 | -0.728 | 0.601 | 0.0783 | -0.539 | 0.0935 | -0.208 | -0.0306 | -0.0996
GCTACCA | -0.133 | -0.0429 | 0.00907 | -0.828 | -0.0741 | 0.301 | -0.234 | -0.0542 | -0.0803 | -0.0269
TAAGTGG | 0.0779 | -0.0223 | 0.082 | 0.285 | 0.0297 | -0.0346 | 0.0879 | 0.0297 | -0.101 | 0.0024
CGTTCAG | 0.00288 | 0.0867 | -0.612 | -0.453 | 0.0783 | -0.966 | 0.16 | 0.00416 | 0.0104 | -0.135
GCCCTCA | -0.136 | 0.0514 | 0.223 | 0.0731 | 0.0426 | 0.515 | 0.0335 | -0.00814 | 0.0558 | -0.0173
CCTAGCA | 0.0188 | 0.0349 | -0.372 | -0.886 | -0.152 | -1.15 | -0.00982 | -0.159 | -0.0049 | -0.00572
CTGACCG | -0.122 | 0.0369 | 0.0599 | 0.887 | -0.0673 | 0.825 | 0.0379 | 0.065 | -0.0557 | -0.0283
TGTGACC | -0.043 | -0.0363 | 0.0483 | 0.688 | -0.0166 | 0.327 | -0.00622 | -0.123 | -0.00799 | 0.00991
ACGTCTG | 0.0654 | 0.0192 | -0.0307 | 0.273 | 0.0649 | 0.441 | 0.107 | 0.0614 | 0.0751 | -0.0599
TTATCAC | -0.0769 | 0.104 | 0.322 | 0.301 | -0.18 | 0.311 | -0.0876 | -0.093 | 0.0566 | 0.109
AGGTGCG | -0.0226 | -0.0741 | -0.132 | 1.11 | 0.0413 | 0.868 | 0.178 | 0.0194 | 0.0146 | -0.147
TAAGATA | -0.0254 | -0.0609 | -1.71 | -2.57 | -0.00221 | 0.0157 | -0.0221 | -0.091 | 0.00406 | -0.808
AGGGTAC | 0.0717 | -0.0163 | 0.128 | 0.796 | -0.0116 | 0.191 | 0.176 | -0.0456 | -0.0102 | 0.0269
GTGATAA | 0.145 | 0.161 | 0.438 | 1.05 | -0.0674 | 1.87 | 0.132 | 0.123 | 0.203 | 0.249
GAAGCTG | 0.0808 | 0.0819 | 0.371 | 1.55 | 0.0332 | 1.74 | 0.209 | 0.0867 | -0.115 | 0.12
ACGGCTG | -0.0661 | -0.07 | -0.00665 | 0.665 | -0.0177 | 1.39 | 0.103 | 0.119 | -0.0196 | -0.0552
TTCGACG | 0.0169 | -0.0631 | -0.544 | -0.513 | -0.18 | -0.99 | -0.00595 | -0.075 | -0.209 | -0.228
